Assay results published in the BET-seq Pho4 binding data (Le et al. 2018).
Some of the results follow. The energies were worked out here from pooled read counts, against the library average; single values are noisy.

What follows are sequences tested against T1, Pho4 (S. cerevisiae) (UniProt P07270) (assay: relative binding free energy (BET-seq); higher = weaker binding). Details: reference: library average.
T1 sequence: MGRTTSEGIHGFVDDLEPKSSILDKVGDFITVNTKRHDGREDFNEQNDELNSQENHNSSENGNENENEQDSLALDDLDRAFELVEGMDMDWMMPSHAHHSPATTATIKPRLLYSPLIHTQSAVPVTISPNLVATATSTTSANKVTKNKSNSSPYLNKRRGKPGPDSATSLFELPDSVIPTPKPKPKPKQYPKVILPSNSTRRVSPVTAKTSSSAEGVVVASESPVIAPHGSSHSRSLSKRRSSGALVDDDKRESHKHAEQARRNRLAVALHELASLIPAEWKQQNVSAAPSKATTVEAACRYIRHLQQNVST

Row | Sequence | relative binding free energy [kcal/mol]
1 | TTTAACACGTGGAGGT | 0.04
2 | TTGCGCACGTGATTGG | 0.21
3 | GTAATCACGTGTGTAT | 0.37
4 | AGGTGCACGTGTTTGA | 0
5 | AGTACCACGTGGCGGG | -0.18
6 | CGAGTCACGTGGGTTA | 0
7 | GGTAGCACGTGCTGAG | -0.04
8 | AGGGACACGTGTCGTT | -0.08
9 | TTGCGCACGTGTAGGA | -0.06
10 | ACGGCCACGTGGGTGG | -0.26
11 | ATATACACGTGATATG | -0.01
12 | TATTGCACGTGCATAG | -0.08
13 | GTGGGCACGTGAACTT | 0.16
14 | ATGGTCACGTGGGTGG | 0.06
15 | GTGAGCACGTGAACTG | 0.3
16 | GGACGCACGTGAAGGT | 0.33
17 | ACTGTCACGTGAGGTA | 0.26
18 | GAGGGCACGTGCGGCG | -0.28
19 | TGAGGCACGTGATGGT | 0.02
20 | CTAGGCACGTGCGTAG | -0.16
21 | TGATACACGTGGGAAG | -0.08
22 | ATTTACACGTGGGTTA | -0.01
23 | AATGGCACGTGGGTCG | -0.12

Row | Sequence | relative binding free energy [kcal/mol]
24 | AGTGACACGTGGAGGG | 0.04
25 | TCTGTCACGTGTGTAC | 0.11
26 | CTAGGCACGTGGGGTT | -0.27
27 | TTCTACACGTGGGTAG | -0.08
28 | CAGTGCACGTGAAGTT | 0.28
29 | GCTTGCACGTGTGTGG | 0.02
30 | AGCGTCACGTGGAGGG | 0.06
31 | ATTATCACGTGTGCGG | 0.03
32 | GTGTTCACGTGACAGG | 0.37
33 | AAATACACGTGGGATG | -0.07
34 | TCACGCACGTGTTGGG | -0.05
35 | AAAGTCACGTGAGGAG | 0.25
36 | CTTGTCACGTGGGCGC | 0.06
37 | TTCTACACGTGTTGGC | 0.26
38 | GGTGGCACGTGAGACG | 0.18
39 | TGTGGCACGTGCATGA | -0.3
40 | GCCGGCACGTGAGGTT | 0.27
41 | GGCTGCACGTGCTTGG | -0.01
42 | AGTTTCACGTGCAAGT | 0.31
43 | AGACTCACGTGGTTTT | 0.09
44 | TTTGGCACGTGTTGTG | -0.02
45 | TGTACCACGTGTTATT | -0.17
46 | GTTGCCACGTGGGAGA | -0.11

Row | Sequence | relative binding free energy [kcal/mol]
47 | ATTGTCACGTGCGGCG | -0.1
48 | TGATGCACGTGAAAGT | 0.21
49 | TTTTTCACGTGATTAG | 0.32
50 | GTGTTCACGTGGGGCA | 0.1
51 | CAGGGCACGTGGATCG | 0.04
52 | TTGGTCACGTGGATTC | 0.16
53 | TGGGGCACGTGTGTAA | -0.09
54 | GGGCACACGTGGGTCG | -0.07
55 | GTGAACACGTGATGGG | 0.15
56 | TGGGACACGTGTATGA | -0.08
57 | CTGGGCACGTGGGTGC | -0.29
58 | TTCTTCACGTGAGTTG | 0.42
59 | CTATCCACGTGGGGGG | -0.25
60 | TTACGCACGTGATGTG | -0.09
61 | ACGGTCACGTGAAGTT | 0.28
62 | TTTGTCACGTGTTTTA | 0.08
63 | GGTTACACGTGATTTT | 0.36
64 | CGTGTCACGTGTTAAA | 0.11
65 | CAGTTCACGTGTTGGT | 0.35
66 | TAGGGCACGTGCAGTG | -0.17
67 | TTAGGCACGTGATTTC | -0.05
68 | TTTCGCACGTGAGTAA | 0.05
69 | GCAGGCACGTGTTGGC | -0.04

Row | Sequence | relative binding free energy [kcal/mol]
70 | ATAGTCACGTGGGGTT | -0.01
71 | ATTCTCACGTGTGATG | 0.27
72 | GTTGCCACGTGGCGGG | -0.07
73 | ACTGACACGTGGGTTG | -0.07
74 | AGGGTCACGTGGATAA | 0.1
75 | TACGGCACGTGTGGCG | -0.06
76 | TCGAGCACGTGTGTCG | 0.03
77 | TTGATCACGTGATAAT | 0.26
78 | AGATGCACGTGGGGTA | -0.04
79 | CTGGCCACGTGTGTAG | 0.06
80 | TTTGGCACGTGGGATT | -0.07
81 | ATTAGCACGTGATGCT | 0.09
82 | TCTCGCACGTGGTTTT | -0.06
83 | GATATCACGTGTTTCT | 0.26
84 | TGGATCACGTGATTGG | 0.3
85 | GTGAACACGTGAAGGT | 0.26
86 | TAATGCACGTGTTTTA | 0.02
87 | TGGTACACGTGGCAAG | -0.01
88 | CGCGTCACGTGGTAGT | 0.04
89 | TCTTTCACGTGGGCGG | 0.13
90 | ATTCGCACGTGGGGGT | -0.1
91 | TGTGGCACGTGACATA | -0.1
92 | TGTTGCACGTGCTTTC | -0.01

Row | Sequence | relative binding free energy [kcal/mol]
93 | TAGATCACGTGGCGGT | 0.11
94 | AAGGTCACGTGTGGAA | 0.15
95 | ATATTCACGTGGCTGT | 0.11
96 | TACTGCACGTGTAAGT | 0.19
97 | AAGGGCACGTGTACGT | -0.05
98 | CGTGTCACGTGTTAAG | 0.01
99 | CATAACACGTGGTGTG | -0.14
100 | AAAGGCACGTGCGGGT | -0.28
101 | GGTGTCACGTGGCTAG | 0.1
102 | TTGGGCACGTGTGGCC | 0.03
103 | TGTGGCACGTGTCGGT | 0
104 | GGTTGCACGTGGGTGT | -0.04
105 | CCGTGCACGTGCGGGT | -0.02
106 | TTTTGCACGTGGTTGA | -0.06
107 | AAAGGCACGTGGGTGG | -0.16
108 | GGGAACACGTGATTTT | 0.23
109 | AGTGGCACGTGTTCTA | -0.11
110 | TTATCCACGTGTGTTT | 0.03
111 | GTAGGCACGTGTGCGT | -0.16
112 | GTTTACACGTGTGATG | 0.3
113 | GAATACACGTGTATTT | 0.32
114 | AGGGTCACGTGGTAAC | 0.22
115 | ATTAACACGTGTTGAA | -0.05
